# Test results from PubChem BioAssay (NCATS).
# Inconclusive results, whose numbers are uncertain, are shown with a selection of clear calls. For some of these results: Potencies of inconclusive entries are left out as doubtful fits. Active and inactive are the calls of the source. Calls follow the shape of the dose curve; as a rule, active = well fitted curve in the direction sought with a large enough effect; inconclusive = small, poorly fitted or top-dose-only effect, or another doubt; inactive = no such curve, though single readings can be large; an effect the other way counts as inactive or inconclusive.
# Columns and labels:
# [1] = qHTS of pediatric cancer cell lines to identify multiple opportunities for drug repurposing: Primary screen for SK-N-MC cells (AID 1347093); conditions: SK-N-MC viability, CellTiter-Glo luminescence, 48 h; activity change, negative = cytotoxic: at 46 µM (top of the series); also: potency is read from the fitted curve at half-maximal effect;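 as to activity change, negative = cytotoxic: plate controls were DMSO neutral control for no effect and bortezomib for full effect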
# How it was run: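 Metabolically active cells were quantified by ATP-dependent luminescence (CellTiter-Glo, 15 min at room temperature) following 48 h treatment. Cells had been plated at 500-1,000 per well and settled for 5 h beforehand.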
# [2] = qHTS of pediatric cancer cell lines to identify multiple opportunities for drug repurposing: Primary screen for BT-12 cells (AID 1347101); also: nearly all actives have a fitted effect of over 25% in size; also: potency is read from the fitted curve at half-maximal effect;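 as to activity change, negative = cytotoxic: plate controls were DMSO for no effect and bortezomib positive control for full effect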
# How it was run: (§1)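 Cells (500-1,000/well) rested 5 h, then received compounds for 48 h; metabolically active cells were measured by CellTiter-Glo luminescence. Final concentrations spanned up to 46 µM (MIPE, 11-point) or 0.59 nM-46 µM (NPC, 8-point) in primary screens, 11-point in follow-ups.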
# [3] = qHTS of pediatric cancer cell lines to identify multiple opportunities for drug repurposing: Primary screen for Rh18 cells (AID 1347102); also: potency is read from the fitted curve at half-maximal effect; nearly all actives have a fitted effect of over 65% in size
# How it was run: as §1
# [4] = qHTS of pediatric cancer cell lines to identify multiple opportunities for drug repurposing: Primary screen for OHS-50 cells (AID 1347103); also: potency is read from the fitted curve at half-maximal effect; nearly all actives have a fitted effect of over 40% in size
# How it was run: as §1
# [5] = qHTS of pediatric cancer cell lines to identify multiple opportunities for drug repurposing: Primary screen for RD cells (AID 1347104); also: nearly all actives have a fitted effect of over 55% in size; also: potency is read from the fitted curve at half-maximal effect;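 as to activity change, negative = cytotoxic: plate controls were DMSO for no effect and bortezomib for full effect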
# How it was run: (§2)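 Viability was measured as metabolically active cells after 48 hours of treatment, read by CellTiter-Glo luminescence. Compounds were tested at multiple final concentrations, giving concentration-response curves.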
# [6] = qHTS of pediatric cancer cell lines to identify multiple opportunities for drug repurposing: Primary screen for control Hh wild type fibroblast cells (AID 1347106); also: potency is read from the fitted curve at half-maximal effect; nearly all actives have a fitted effect of over 55% in size
# How it was run: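 Viability after 48 h compound treatment at 37C, 500-1,000 cells/well, read as ATP luminescence with CellTiter-Glo. Primary screens used 11-point (MIPE, 0.78 nM-46 µM) or 8-point (NPC, 0.59 nM-46 µM) final concentrations; follow-up screens used 11-point dilutions.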
# [7] = qHTS of pediatric cancer cell lines to identify multiple opportunities for drug repurposing: Primary screen for Rh30 cells (AID 1347107); also: nearly all actives have a fitted effect of over 75% in size; also: potency is read from the fitted curve at half-maximal effect; as to activity change, negative = cytotoxic: % is scaled to controls: 0 for no effect and ±100 for the full control effect
# How it was run: as §1
# [8] = qHTS of pediatric cancer cell lines to identify multiple opportunities for drug repurposing: Primary screen for NB-EBc1 cells (AID 1347095);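 also: plate controls were DMSO neutral control for no effect and bortezomib for full effect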
# How it was run: as §2
# [9] = qHTS of pediatric cancer cell lines to identify multiple opportunities for drug repurposing: Primary screen for Saos-2 cells (AID 1347097); also: nearly all actives have a fitted effect of over 40% in size; also: potency is read from the fitted curve at half-maximal effect; as to activity change, negative = cytotoxic: % is scaled to controls: 0 for no effect and ±100 for the full control effect
# How it was run: as §2
# [10] = qHTS of pediatric cancer cell lines to identify multiple opportunities for drug repurposing: Primary screen for SK-N-SH cells (AID 1347098); also: nearly all actives have a fitted effect of over 65% in size; also: potency is read from the fitted curve at half-maximal effect;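 as to activity change, negative = cytotoxic: DMSO served as neutral control and bortezomib at 2.3 µM as positive control; % is scaled to controls: 0 for no effect and ±100 for the full control effect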
# How it was run: as §1
# [11] = qHTS of pediatric cancer cell lines to identify multiple opportunities for drug repurposing: Primary screen for Rh41 cells (AID 1347108); also: nearly all actives have a fitted effect of over 70% in size; also: potency is read from the fitted curve at half-maximal effect;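 as to activity change, negative = cytotoxic: luminescence drop marks cytotoxic hits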
# How it was run: as §2
# [12] = qHTS of pediatric cancer cell lines to identify multiple opportunities for drug repurposing: Confirmatory screen for NB1643 cells (AID 1347109); conditions: NB1643 neuroblastoma cell viability; activity change, negative = cytotoxic: at 45.9 µM (top of the series); also: nearly all actives have a fitted effect of over 45% in size; also: potency is read from the fitted curve at half-maximal effect;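 as to activity change, negative = cytotoxic: plate controls were DMSO for no effect and bortezomib for full effect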
# How it was run: as §1
# [13] = qHTS of pediatric cancer cell lines to identify multiple opportunities for drug repurposing: Primary screen for BT-37 cells (AID 1347094); also: potency is read from the fitted curve at half-maximal effect;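 as to activity change, negative = cytotoxic: plate controls were DMSO for no effect and bortezomib for full effect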
# How it was run: as §2
# [14] = qHTS of pediatric cancer cell lines to identify multiple opportunities for drug repurposing: Primary screen for NB1643 cells (AID 1347099); also: nearly all actives have a fitted effect of over 50% in size; also: potency is read from the fitted curve at half-maximal effect;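 as to activity change, negative = cytotoxic: plate controls were DMSO neutral control for no effect and bortezomib positive control for full effect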
# How it was run: as §2
# [15] = qHTS of pediatric cancer cell lines to identify multiple opportunities for drug repurposing: Primary screen for LAN-5 cells (AID 1347100); conditions: LAN-5 neuroblastoma viability, CellTiter-Glo luminescence, 48 h; activity change, negative = cytotoxic: at 46 µM (top of the series); also: potency is read from the fitted curve at half-maximal effect;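 as to activity change, negative = cytotoxic: plate controls were DMSO neutral control for no effect and bortezomib positive control for full effect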
# How it was run: as §1
# [16] = qHTS of pediatric cancer cell lines to identify multiple opportunities for drug repurposing: Primary screen for U-2 OS cells (AID 1347096); also: nearly all actives have a fitted effect of over 50% in size; also: potency is read from the fitted curve at half-maximal effect;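 as to activity change, negative = cytotoxic: plate controls were DMSO wells for no effect and bortezomib positive control wells for full effect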
# How it was run: as §1
# [17] = qHTS of pediatric cancer cell lines to identify multiple opportunities for drug repurposing: Primary screen for MG 63 (6-TG R) cells (AID 1347105); conditions: MG 63 (6-TG R) viability, CellTiter-Glo, 48 h; activity change, negative = cytotoxic: at 46 µM (top of the series); also: nearly all actives have a fitted effect of over 50% in size; also: potency is read from the fitted curve at half-maximal effect; as to activity change, negative = cytotoxic: % is scaled to controls: 0 for no effect and ±100 for the full control effect
# How it was run: as §2
# Tags tell the direction and shape of the fitted curve.
compound,measurement,setting,value
COC(=O)C1=C(C)NC(C)=C(C(=O)OC(C)C)C1c1cccc2nonc12 (stereo unspecified),Potency,[1],"inconclusive [cytotoxic, single point]"
same,Potency,[2],"inconclusive [cytotoxic, single point]"
same,Potency,[3],"inconclusive [cytotoxic, single point]"
same,Potency,[4],"inconclusive [cytotoxic, single point]"
same,Potency,[5],"inconclusive [cytotoxic, single point]"
same,Potency,[6],"inconclusive [cytotoxic, single point]"
same,Potency,[7],"inconclusive [cytotoxic, partial curve, poor fit]"
C[C@H](O)[C@@H]1C(=O)N2C(C(=O)O)=C(S[C@@H]3CN[C@H](CNS(N)(=O)=O)C3)[C@@H](C)[C@@H]12,Potency,[1],"inconclusive [cytotoxic, partial curve, poor fit]"
same,Potency,[8],inactive
same,Potency,[9],inactive
same,Potency,[10],"inconclusive [cytotoxic, partial curve]"
same,Potency,[5],inactive
CC(C)(C)c1cc(C(C)(C)C)c(NC(=O)c2c[nH]c3ccccc3c2=O)cc1O,Potency,[1],"inconclusive [cytotoxic, partial curve, poor fit]"
same,Potency,[9],"inconclusive [cytotoxic, partial curve]"
same,Potency,[11],"inconclusive [cytotoxic, partial curve, poor fit]"
same,Potency,[12],"inconclusive [cytotoxic, single point]"
CCCCCN(C)CCC(O)(P(=O)(O)O)P(=O)(O)O,"activity change, negative = cytotoxic",[1],inconclusive: -38.1% [cytotoxic]
same,Potency,[9],inactive
same,Potency,[10],inactive
CC(Oc1ccc(O)cc1)(P(=O)(O)O)P(=O)(O)O,Potency,[1],"inconclusive [cytotoxic, full curve, poor fit]"
same,Potency,[13],inactive
same,Potency,[8],inactive
same,Potency,[2],inactive
same,Potency,[7],inactive
CCCCC(=O)O[C@]1(C(=O)CO)[C@@H](C)C[C@H]2[C@@H]3CCC4=CC(=O)C=C[C@]4(C)[C@@]3(F)[C@@H](O)C[C@@]21C,Potency,[1],inactive
same,Potency,[9],"inconclusive [cytotoxic, single point]"
same,Potency,[10],inactive
same,Potency,[14],inactive
same,Potency,[2],inactive
same,Potency,[11],inactive
Cc1ccc2c(c1)c1c(n2CCc2ccc(C)nc2)CCN(C)C1,Potency,[1],"inconclusive [cytotoxic, partial curve, poor fit]"
same,Potency,[9],inactive
same,Potency,[10],"inconclusive [cytotoxic, partial curve]"
same,Potency,[14],"inconclusive [cytotoxic, single point]"
same,Potency,[4],"inconclusive [cytotoxic, partial curve, poor fit]"
same,Potency,[5],inactive
CCc1cccc2c3c([nH]c12)C(CC)(CC(=O)O)OCC3 (stereo unspecified),Potency,[1],"inconclusive [cytotoxic, single point]"
same,Potency,[8],inactive
same,Potency,[9],inactive
same,Potency,[14],"inconclusive [cytotoxic, partial curve]"
c1cncc(CN2CCC(n3ncc4c(N5CCOCC5)nc(-c5ccc6[nH]ccc6c5)nc43)CC2)c1,Potency,[1],active: 7.43 µM
same,Potency,[9],"inconclusive [cytotoxic, partial curve]"
same,Potency,[14],active: 6.62 µM
same,Potency,[15],active: 14.8 µM
same,Potency,[3],active: 5.9 µM
same,Potency,[6],"inconclusive [cytotoxic, partial curve]"
same,Potency,[7],active: 14.8 µM
same,Potency,[11],active: 3.32 µM
OC[C@H]1OC(O)C[C@@H](O)[C@H]1O (stereo partly specified),Potency,[1],inactive
same,Potency,[16],inactive
same,Potency,[17],inactive
CC1=C(C(=O)O)N2C(=O)[C@@H](NC(=O)C(N)c3ccccc3)[C@H]2SC1 (stereo partly specified),Potency,[1],"inconclusive [cytotoxic, partial curve, poor fit]"
same,Potency,[15],inactive
same,Potency,[2],inactive
CC(C)(Oc1ccc(C2CC2(Cl)Cl)cc1)C(=O)O (stereo unspecified),Potency,[1],"inconclusive [cytotoxic, single point]"
same,Potency,[9],inactive
same,Potency,[7],"inconclusive [cytotoxic, partial curve, poor fit]"
same,Potency,[11],"inconclusive [cytotoxic, partial curve]"
COCCOc1ccc2c(c1)ncn2-c1ccc2cccc(N3CCC(N)CC3)c2n1,Potency,[1],"inconclusive [cytotoxic, single point]"
same,Potency,[13],active: 24.3 µM
same,Potency,[16],active: 18.7 µM
same,Potency,[14],active: 23.5 µM
same,Potency,[15],active: 9.35 µM
same,Potency,[2],active: 27.3 µM
same,Potency,[3],active: 26.4 µM
same,Potency,[5],active: 29.6 µM
same,Potency,[17],active: 29.6 µM
same,Potency,[7],"inconclusive [cytotoxic, partial curve]"
same,Potency,[11],active: 23.5 µM
Cc1[nH]c(C=C2C(=O)Nc3ccc(S(=O)(=O)N(C)c4cccc(Cl)c4)cc32)c(C)c1C(=O)N1CCN(C)CC1,Potency,[1],active: 11.8 µM
same,Potency,[13],active: 24.3 µM
same,Potency,[16],active: 18.7 µM
same,Potency,[9],active: 18.7 µM
same,Potency,[17],"inconclusive [cytotoxic, single point]"
same,Potency,[7],active: 18.7 µM
same,Potency,[11],"inconclusive [cytotoxic, partial curve]"
COC(=O)[C@H](c1ccccc1Cl)N1CCc2sccc2C1,Potency,[1],"inconclusive [cytotoxic, single point]"
same,Potency,[9],"inconclusive [cytotoxic, single point]"
same,Potency,[10],"inconclusive [cytotoxic, partial curve]"
same,Potency,[14],active: 20.9 µM
same,Potency,[15],inactive
same,Potency,[2],"inconclusive [cytotoxic, single point]"
same,Potency,[4],"inconclusive [cytotoxic, single point]"
same,Potency,[5],"inconclusive [cytotoxic, partial curve, poor fit]"
same,Potency,[12],inactive
CCOC(=O)c1ncn2c1CN(C)C(=O)c1cc(F)ccc1-2,Potency,[1],"inconclusive [cytotoxic, single point]"
same,Potency,[13],"inconclusive [cytotoxic, partial curve]"
same,Potency,[14],"inconclusive [cytotoxic, partial curve]"
same,Potency,[15],"inconclusive [cytotoxic, single point]"
same,Potency,[2],"inconclusive [cytotoxic, partial curve, poor fit]"
same,Potency,[5],"inconclusive [cytotoxic, partial curve, poor fit]"
